Data reported in PubChem BioAssay AID504706 (National Center for Advancing Translational Sciences (NCATS), 2011).
Out of some 320,000 compounds screened, about 200 (0.062%) were called active. The inconclusive results got no clear call from the source; some entries with a clear call stand among them for comparison. The call rests on the fitted dose curve; in most records, active means well fitted activation curve with a large enough effect; inconclusive means small, poorly fitted or top-dose-only effect; inactive means no such curve, though single readings can be large or run the other way. Potencies of inconclusive entries are left out as doubtful fits.

Assay: qHTS assay for re-activators of p53 using a Luc reporter; further: nearly all actives have a fitted effect of over 45% in size; on activity change, positive = activation: % of control where 0% means no effect
Conditions: H1299 p53-A138V BP100-luciferase reporter, luminescence, 24 h; series mostly up to 92.2 µM; activity change, positive = activation: at the top concentration
Procedure, shortened: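 H1299 (p53-null), stable ts p53-A138V + BP100-Luc; 1000 cells/well, Opti-MEM/10% FBS; cpd 4 pt, 1:5; 24 h, 37 deg C, 5% CO2; detection reagent 10 min RT; luminescence.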
Potency means the concentration at half of the fitted maximal effect; tags describe the fitted curve by direction and shape.

SMILES | Potency | activity change, positive = activation
O=C(CCN(CCO)Cc1ccccc1)Nc1ccc(Br)cc1 | inconclusive [activator, partial curve, poor fit] | –
Cc1ccc(NC2=C(NC(=O)c3ccccc3)C(=O)c3ccccc3C2=O)cc1Cl | inconclusive [activator, single point] | –
CC(=O)c1cccc2c(O)c(C3=Nc4ccccc4C3=O)[nH]c12 | inconclusive [activator, partial curve, poor fit] | –
CCc1ccc(/C=N/NC(=O)Cc2cccn2C)cc1 | – | inactive: 11.8%
CN(C)c1ccc(N/C=C/C(=O)c2ccco2)cc1 | inconclusive [activator, full curve, poor fit] | –
COc1cc(CNCc2ccccc2Cl)ccc1OCC(=O)NC1CCCCC1 | – | inactive: -0.847%
CCOc1ccc(NS(=O)(=O)c2ccc3[nH]cc(C(=O)NCCOC)c(=O)c3c2)cc1 | inconclusive [activator, partial curve, poor fit] | –
CCc1ccc(C2CC(c3ccco3)=NN2S(C)(=O)=O)cc1 (configuration not stated) | inconclusive [activator, full curve, poor fit] | –
O=C(Nc1ncccc1Cl)c1ccccc1F | inconclusive [activator, partial curve, poor fit] | –
Cc1cccc(N2CCN(C(=O)Cn3ccc4ccccc4c3=O)CC2)c1C | – | inactive: 5.3%
CN(C(=O)CSc1nncc2ccccc12)C1CCCCC1 | inconclusive [activator, partial curve, poor fit] | –
Cc1ccc(C(=O)Oc2cc(-c3ccccc3)no2)cc1 | – | inactive: -3.41%
Cn1nnnc1SCc1nc2ccccc2[nH]1 | inconclusive [activator, partial curve, poor fit] | –
CN(Cc1cccs1)C(=O)CN1C(=O)c2ccccc2S1(=O)=O | inconclusive [activator, full curve, poor fit] | –
O=C(Cc1nc2ccccc2[nH]1)c1cccc([N+](=O)[O-])c1 | – | inactive: 4.82%
CCCCSc1cc(=O)n(-c2ccccc2)nc1C(=O)OCC | inconclusive [activator, single point] | –
Cc1cc(C(=O)OCC(=O)Nc2cc(Cl)ccc2C)c(C)o1 | – | inactive: 2.8%
CCc1ccc(OCC(=O)O/N=C(\N)c2cccnc2)cc1 | – | inactive: 5.07%
Cc1ccc(/C=N/NC(=O)c2ccco2)cc1 | – | inactive: 8.56%
CCOc1ccc(C(=O)NCC2OCCc3ccccc32)cc1 (configuration not stated) | inconclusive [activator, partial curve, poor fit] | –
CN1CCc2c(n(CC(O)CN3CCN(CCO)CC3)c3ccccc23)C1=O (configuration not stated) | – | inactive: 5.89%
Cc1cccc(-n2c(-c3ccco3)n[nH]c2=S)c1 | – | inactive: 1.16%
CCNc1nnc(CSc2nc3ccccc3s2)s1 | inconclusive [activator, single point] | –
O=C(/C=C/c1ccccc1)NC1CCSC1=O (configuration not stated) | inconclusive [activator, partial curve, poor fit] | –

SMILES | Potency | activity change, positive = activation
CC(=O)c1ccc(NC(=O)C[n+]2cccc(C)c2)cc1 | inconclusive [activator, single point] | –
COc1cccc(CNC(=O)CCCC(=O)NC(C)CCc2ccccc2)c1 (configuration not stated) | – | inactive: 1.13%
N#C/C(=N/O)c1nc(-c2ccc(F)cc2)cs1 | – | inactive: 13.5%
Cc1ccc(NC(=O)c2noc3c2CCC3)cc1C | inconclusive [activator, partial curve, poor fit] | –
Clc1ccc(Cn2nc(-c3ccccc3)nc2-c2ccccc2)cc1 | inconclusive [activator, single point] | –
CNc1oc(/C=C/c2ccccc2)nc1C#N | inconclusive [activator, full curve, poor fit] | –
Cc1cc(C)cc(NC(=O)CCc2c(C)nn(-c3ccc(N4CCCCC4)nn3)c2C)c1 | inconclusive [activator, partial curve, poor fit] | –
O=C(NCC1COc2ccccc2O1)c1ccc(Br)s1 (configuration not stated) | inconclusive [activator, partial curve, poor fit] | –
CCCCCCCCNc1ccccc1S(=O)(=O)NCc1ccccc1 | inconclusive [activator, single point] | –
CCOC(=O)c1c(C)[nH]c(C)c1S(=O)(=O)N(C)CC(=O)Nc1cccc(F)c1 | inconclusive [activator, single point] | –
CCOC(=O)C1(Cc2ccccc2C)CCCN(C(=O)c2ccccn2)C1 (configuration not stated) | – | inactive: 6.19%
Cc1cccc(-c2noc(-c3ccc(Cl)cc3[N+](=O)[O-])n2)c1 | inconclusive [activator, partial curve, poor fit] | –
O=C(Cc1ccccc1)Nc1ccc(SC(F)F)cc1 | inconclusive [activator, partial curve, poor fit] | –
O=C(CSc1nnc(-c2ccc(F)cc2)o1)N1CCCCC1 | inconclusive [activator, full curve, poor fit] | –
CN(C)C(CNC(=O)c1ccc(C2SCCS2)cc1)c1ccccc1 (configuration not stated) | inconclusive [activator, full curve, poor fit] | –
Brc1ccc(CSc2nnc(-c3ccco3)o2)cc1 | inconclusive [activator, full curve, poor fit] | –
COCc1ccc(C(=O)N(C)CC2CCCN(CCc3ccc(OC)cc3)C2)o1 (configuration not stated) | inconclusive [activator, full curve, poor fit] | –
COc1ccc(-c2cc(C(=O)NNC(=S)NC(=O)c3c(-c4ccccc4)noc3C)[nH]n2)cc1 | – | inactive: 16.8%
c1coc(CNc2nc(-c3ccncc3)cs2)c1 | inconclusive [activator, partial curve, poor fit] | –
CCN(CC)S(=O)(=O)c1ccc(NC(=O)c2ccccn2)cc1 | inconclusive [activator, partial curve, poor fit] | –
Cc1ccccc1Cn1nnc(C(=O)Nc2ccc3c(c2)OCCO3)c1N | inconclusive [activator, full curve, poor fit] | –
O=C(NC1CC1)c1cccc(Oc2ccccc2)c1 | inconclusive [activator, partial curve, poor fit] | –
Cc1cc(C2CCCCC2)n(O)c(=O)c1 | inconclusive [activator, single point] | –
Cc1ccc(C)c(C(=O)COC(=O)c2n[nH]c3ccccc23)c1 | inconclusive [activator, partial curve, poor fit] | –

SMILES | Potency | activity change, positive = activation
CCOc1ccc(OCCN2C(=O)c3ccccc3C2=O)cc1 | – | inactive: 5.63%
COc1ccccc1N1CCN(/N=C/c2cc(OC)c(OC(C)=O)c(OC)c2)CC1 | inconclusive [activator, partial curve, poor fit] | –
CC(=O)NS(=O)(=O)c1ccc(N=NN2CCCCC2)cc1 | – | inactive: 1.75%
CCCCCC(=O)Nc1ccc(-c2csc(N)n2)cc1 | inconclusive [activator, partial curve, poor fit] | –
CC(=O)Nc1ccc2c(c1)C(=O)c1ccccc1C2=O | inconclusive [activator, single point] | –
CC(C)C(=O)Nc1ccccc1C(=O)OCC(=O)c1ccc2c(c1)OCCO2 | inconclusive [activator, full curve, poor fit] | –
O=C1CCOc2cc(OCc3ccccc3)ccc21 | inconclusive [activator, partial curve, poor fit] | –
COc1ccc(/C=C2\C(=O)NC(=S)N2C(=O)c2ccc(F)cc2)cc1 | inconclusive [activator, partial curve, poor fit] | –
CCCC1CCC(c2nc(-c3cccnc3)no2)CC1 (configuration not stated) | inconclusive [activator, single point] | –
O=C(NC(=S)Nc1ccccc1N1CCCCC1)c1cccs1 | inconclusive [activator, partial curve, poor fit] | –
CCCCOC(=O)c1ccc(NC(=O)c2ccoc2C)cc1 | inconclusive [activator, partial curve, poor fit] | –
O=C(Nc1ccc2c(c1)OCO2)c1ccccc1 | inconclusive [activator, full curve, poor fit] | –
CC1=NN(C(N)=S)C(=O)C1N=Nc1cccc(C)c1 (configuration not stated) | – | inactive: 18.4%
CC(C)C(=O)Nc1cccc(S(=O)(=O)c2cccc(NC(=O)C(C)C)c2)c1 | – | inactive: -10.8%
CCN(CC)c1ccc(NC(=O)COC(=O)c2ccc3ccccc3n2)cc1 | – | inactive: 3.91%
Cc1cnnn1-c1cccc([N+](=O)[O-])c1 | inconclusive [activator, single point] | –
Cc1nn(C)c(C(=O)NNC(=S)NCC(C)C)c1Cl | – | inactive: -1.76%
N#Cc1c(N)nc(N)nc1Nc1ccc(Br)cc1 | inconclusive [activator, full curve, poor fit] | –
O=C(NNC(=O)C1C2C=CC(C2)C1C(=O)O)c1ccccc1 (configuration not stated) | inconclusive [activator, single point] | –
CCN/C=C(\C#N)S(=O)(=O)c1ccc(Br)cc1 | – | inactive: -1.36%
Nc1nnn(CC(=O)N/N=C/c2ccncc2)n1 | – | inactive: -0.375%
CCN1/C(=C/c2cccc[n+]2C)Sc2ccc(OC)cc21 | – | inactive: 11.8%
COc1cc(OC)c(C(=O)Nc2cccnc2)cc1OC | inconclusive [activator, single point] | –
COc1cccc(CN(C)Cc2nc3cc(C(F)(F)F)ccc3c(=O)[nH]2)c1 | – | inactive: -0.302%
